Whole data set: some 13,000 compounds, median “IFI” near 4, cut for the highest 2% near 17. The list shows a part of the results.
experiment: GSK_TCMDC: Inhibition Frequency Index (IFI). The number of non-kinase HTS assays where a compound showed > 50 % inhibition, expressed as a percentage of the number of such assays in which the compound was tested (-0 is zero); type: functional

SMILES	IFI
CCCOc1cccc(C(=O)N[C@@H](Cc2ccccc2)[C@H](O)CNCc2ccccc2OC)c1	8.64%
COc1ccc2c(NN=Cc3ccc(Cl)cc3)ccnc2c1	2.26%
O=C(N[C@H]1CCN(Cc2ccc(OCCN3CCNCC3)c(Cl)c2)C1)c1ccc(Cl)c(Cl)c1	6.67%
COc1cc(NC(=O)N2CCc3ccc(OCCN(C(C)C)C(C)C)cc32)cc(C(F)(F)F)c1	2.9%
CCOC(=O)c1c(NC(=O)c2ccccc2)sc2c(O)c(CN(CC)CC)ccc12	2.17%
c1ccc(Oc2ccc(Nc3nc(NCCc4c[nH]cn4)nc(NC4CCCC4)n3)cc2)cc1	2.14%
NC1CCN(Cc2cccc(-c3csc(-c4nc5ccccc5[nH]4)c3)c2)C1 (stereo not drawn)	1.37%
CCc1c(C(=O)NC2CCC(N3CCC(c4ccccc4OC)CC3)CC2)[nH]c2ccc(OC)cc12 (stereo not drawn)	6.45%
CCCCCC1c2[nH]c3ccccc3c2CCN1C(=O)OCc1ccccc1 (stereo not drawn)	3.55%
CN1CCN(CCCN(Cc2ccc(-c3ccc(CNCCc4ccccc4)cc3)cc2)C(=O)c2cccs2)CC1	9.03%
CCCCCCNC(=O)C1Cc2c([nH]c3ccc(C)cc23)C2(CCN(CCc3ccccc3)CC2)N1 (stereo not drawn)	3.5%
Cc1cc(=O)oc2c1ccc1oc(C(O)c3ccc(Cl)cc3)c(C)c12 (stereo not drawn)	2.86%
Cc1c(C)n(C2CCCC2)c2ncnc(OC3CCN(CC(=O)NC4CC4)CC3)c12	6.1%
FC(F)(F)c1ccc2[nH]c(-c3ccc(-c4ccc(CNCC5CCCO5)cc4)cc3)nc2c1 (stereo not drawn)	5.71%
Fc1ccc2[nH]c(-c3cccc(-c4cccc(CNCCN5CCNCC5)c4)c3)nc2c1	7.92%
O=C(NCC(NCCCNc1cc(=O)c2ccccc2[nH]1)c1cc(Br)cc(Br)c1)C1=CCCC1 (stereo not drawn)	4.58%
COc1ccc(Nc2nccc(N3CCC(NC(=O)Nc4ccc5c(c4)OCO5)C3)n2)cc1 (stereo not drawn)	2.99%
Cc1nc(-c2ccncc2)sc1C(=O)Nc1ccc(Cl)cc1C(=O)Nc1ccc(Cl)cc1	-0%
CCOc1cc(C=Cc2nc(O)c3ccccc3n2)cc(Cl)c1O	0%
CCN(CC)CCN(Cc1ccc(-c2ccc(C(F)(F)F)cc2)cc1)C(=O)Cn1c(CCc2cccc(F)c2F)cc(=O)c(C)c1C	5%
CC(C)NC(=O)c1cccc(-c2ccc(OCCN3CCCC3c3cc4ccccc4[nH]3)cc2)c1 (stereo not drawn)	1.82%
Cc1cc(N/N=C/c2ccc([N+](=O)[O-])cc2)c2ccc(F)cc2n1	0.75%

SMILES	IFI
CC(C)CCNC(=O)C1Cc2c([nH]c3cc(Cl)ccc23)C2(CCN(CCc3ccccc3)CC2)N1 (stereo not drawn)	2.8%
COc1ccc(-c2onc(C(F)(F)F)c2-c2cc3ccccc3o2)c(O)c1	4.8%
COc1ccc2ccccc2c1C=NN=c1cc[nH]c2ccc(F)cc12	0%
COc1ccc2nc(C)cc(Nc3ccc(Oc4ccc5ccccc5c4Cl)c(Cl)c3)c2c1	2.19%
CCCCCCn1c(Sc2ccc(C#N)c([N+](=O)[O-])c2)nnc1-c1cccc(Cl)c1	5.67%
COc1ccc2nccc([C@@H](O)CN3CCC(NC(=O)c4nc(Cl)c(Cl)c(N)c4Cl)CC3)c2c1	0.75%
O=S(=O)(Nc1cccc(CCN2CCC(N3CCCCC3)CC2)c1)c1ccc(Cl)cc1	3.23%
COc1c(C2CCN(CCCCNC(=O)c3ccc(-c4ccc(Cl)cc4)c(O)c3)CC2)ccc2c1CCCC2	9.09%
COc1cccc2cc(C(=O)N[C@@H](CC(C)C)C(=O)N[C@H](/C=N/N(C)C(=O)OC(C)(C)C)CC(=O)OC(C)(C)C)oc12	4.59%
CC=CCON1C(=N)NC(=N)NC1(C)C	1.5%
O=C(Nc1ccc(Br)cc1)N(CCN1CCOCC1)CC(O)COCc1ccc(Cl)c(Cl)c1 (stereo not drawn)	2.14%
CCCOC(=O)C1=C(C)NC2=C(C(=O)CC(c3ccc(OC)c(OC)c3)C2)C1c1cccc(O)c1 (stereo not drawn)	0.74%
FC(F)(F)c1ccc2[nH]c(-c3ccc(-c4cccc(CNCc5cnn(-c6ccccc6)n5)c4)cc3)nc2c1	5%
CCN(CC)CCN(Cc1ccc(-c2ccc(C(F)(F)F)cc2)cc1)C(=O)Cn1c(CCc2cccc(F)c2F)nc(=O)c2ccccc21	8.39%
CC1CN(c2cnn(Cc3cccc(NC(=O)Nc4ccc(-c5ccccc5)cc4)c3)c(=O)c2Cl)CC(C)N1 (stereo not drawn)	5.63%
O=C(Nc1ccc(F)c(C(F)(F)F)c1)NC1CCN(CCCCCNC(=O)C2CC2c2ccc(Cl)c(Cl)c2)CC1 (stereo not drawn)	18.5%
NCCNc1ccc([N+](=O)[O-])cc1C(=O)Nc1cccc(C(F)(F)F)c1	1.45%
O=C(Nc1cccc(-c2csc(-c3nc4ccccc4[nH]3)c2)c1)c1ccncc1	5.5%
COc1cc(C2Nc3ccc4ccccc4c3C3=C2C(=O)CC(C)(C)C3)ccc1Oc1ccc([N+](=O)[O-])cc1C#N (stereo not drawn)	1.48%
CCN(CC)CCCC(C)N=c1cc(C=Cc2ccccc2Cl)[nH]c2cc(Cl)ccc12 (stereo not drawn)	0.7%
CCC(C)NS(=O)(=O)c1ccc2nc(Nc3ccc(C)cc3)n([C@H](C)C(C)(C)C)c2c1 (stereo partly drawn)	5.11%
O=C(NCCCCN1CCC(c2ccc3c(c2OCC(O)c2ccc(Cl)cc2)CCCC3)CC1)c1ccc(-c2ccc(C(F)(F)F)cc2)cc1 (stereo not drawn)	9.65%

SMILES	IFI
c1ccc(N2CCN(c3cc(-c4cccnc4)nc(-c4ccncc4)n3)CC2)nc1	1.06%
O=C(CSc1nc(-c2ccccc2Cl)ns1)Nc1ccc2c(c1)OCO2	0.81%
C=CCOC(=O)N1CCC(CNCc2cccc(-c3ccc(-c4nc5cccc(C)c5[nH]4)cc3)c2)C1 (stereo not drawn)	5.94%
c1ccc2c(C3CCN(CCCCOc4ccc5c(c4)CCN(C4CCC4)CC5)CC3)c[nH]c2c1	14.6%
Cc1cc(F)ccc1Nc1nc(N(C)c2ccccc2)c2cccc(O)c2n1	9.79%
COc1ccc(CC2(c3ccc(F)cc3)N=C(N)N(CCCc3cccnc3)C2=O)cc1 (stereo not drawn)	3.33%
Cc1c(F)cc(C(=O)NC2CC2)cc1-c1ccc2c(cnn2S(=O)(=O)c2ccc(C#N)cc2)c1	7.41%
CC1CCN(Cc2c(O)ccc3c(O)c(-c4nc5ccccc5s4)c(=N)oc23)CC1	1.82%
O=C(NCc1ccccc1)Nc1cccc(-c2cccc(-c3nc4cc(C(F)(F)F)ccc4[nH]3)c2)c1	5%
Cc1ccc(Nc2nccc(NCC(O)c3cccc(C)c3)n2)cc1 (stereo not drawn)	18.4%
O=C1C(c2ccccc2)=C(Nc2cc(Cl)cc(Cl)c2)c2ccccc21	4.44%
CC(=O)c1ccc(-n2ccnc2)cc1	0.73%
Cc1cc(N[C@@H](Cc2ccccc2)C(=O)NCc2cccc(F)c2)nc(NCc2ccccc2C)n1	4.88%
Cc1nnc(Sc2ncnc3scc(-c4ccc(F)cc4)c23)s1	7.25%
CCN(CC)CCCN(CCCN(CC)CC)c1cc(C)nc(Nc2ccc(Br)cc2)n1	6.15%
CCN(CCCN1CCCCC1)c1cc(C)nc(Nc2ccc(C)c(Cl)c2)n1	5.13%
COc1cc(/C=N/Nc2nc(Nc3ccccc3)nc(Nc3ccccc3)n2)ccc1OCc1ccccc1[N+](=O)[O-]	-0%
Fc1ccc2[nH]c(-c3cccc(-c4ccc(CNCC5CCCO5)cc4)c3)nc2c1 (stereo not drawn)	5.88%
CCOc1cc(C)c(C2CCN(CCCCNC(=O)c3ccc(NC(=O)c4ccc(Cl)cc4)cc3)CC2)cc1C	4.55%
CC(=O)Nc1ccc(CN2CCC(NC(=O)c3ccc(-c4cccc(OC(C)C)c4)s3)CC2)cc1	5.26%
CCOC(=O)c1ccc(NC(=O)N[C@@H](Cc2ccccc2)C(=O)NC2CCN(Cc3ccc(OCCCN(C)C)cc3)C2)cc1 (stereo partly drawn)	2.94%
Cn1nc(-c2ccc(CN[C@@H]3CCc4ccc(O)cc43)cc2)c2cnc(NC3CCCC3)nc21	7.69%

SMILES	IFI
COc1ccc(NC(=O)CCNc2cc(C)nc(NCc3ccccc3C)n2)cc1	4.88%
CCOC(=O)CCCc1cc(NC2CCN(C)CC2)nc(Nc2ccc(C)cc2)n1	2.9%
Cc1cccc2[nH]cc(C3CCN(CCC4CCN(C(=O)/C=C/c5ccc(Cl)c(Cl)c5)CC4)CC3)c12	2.88%
Cc1cccc2nc(-c3cccc(-c4ccc(NC(=O)Nc5ccc(Cl)c(Cl)c5)cc4)c3)[nH]c12	7.07%
CCOc1ccc2[nH]c(C)cc(=NN=Cc3cccnc3)c2c1	5.07%
COc1cccc(C2=CC(C)(C)Oc3cc(OCCN(C)C)ccc32)c1	0%
CC(C)(C)n1nnnc1C(c1cccnc1)N(Cc1ccccc1)Cc1ccc(Cl)cc1 (stereo not drawn)	2.46%
CCNC(=O)Nc1ccc(N(C)c2ccnc(Nc3ccc(CS(C)(=O)=O)cc3)n2)cc1	-0%
Clc1cnc2ccc3c(c2c1CCN1CCC(NCc2cc4c(cn2)OCCO4)CC1)OCCO3	3.6%
CN(C)CCCN1C(=O)c2[nH]nc(-c3ccc(Cl)cc3O)c2C1c1ccc(Cl)cc1 (stereo not drawn)	13.7%
Clc1ccc(-c2nc(-c3ccncc3)c[nH]2)cc1Cl	3.33%
CC(C)COc1ccc(Cl)cc1Cc1ccc(-c2nc3c(F)cccc3[nH]2)o1	15.5%
NC(=O)c1ccsc1NC(=O)CNC(c1ccc(F)cc1)c1cccs1 (stereo not drawn)	3.7%
C=CCn1c(SCc2c(C)noc2C)nc2scc(-c3cccs3)c2c1=O	3.92%
CNC(=O)c1ccc(/C=C/C(=O)N2CCc3ccc(-c4ccccc4)cc3C2c2cccc(C(F)(F)F)c2)cc1 (stereo not drawn)	1.53%
O=C(/C=C/c1ccc(Cl)c(Cl)c1)NCC1CCN(Cc2ccc(O)cc2)CC1	2.01%
COc1ccc2nccc([C@@H](O)CN3CCC(NC(=O)C(c4cc5ccccc5o4)N4CCN(c5ccc(F)cc5)CC4)CC3)c2c1 (stereo partly drawn)	4.17%
CCOc1cc(C(C)C)ccc1N1CCN(CCCCNC(=O)c2ccc(NC(=O)c3ccc(Cl)cc3)cc2)CC1	2.59%
CNCCNCc1ccc(-c2ccc(-c3nc4cc(F)ccc4[nH]3)s2)cc1	7.92%
O=S(=O)(c1cccc2cccnc12)N1CCN(C2CCCCC2)CC1	-0%
Cc1c(F)cc(C(=O)NC2CC2)cc1-c1ccc2c(cnn2S(=O)(=O)c2ccc(Cl)s2)c1	2.24%
CCCCOc1ccc(-c2nc3ccccc3[nH]2)cc1	2.14%
